Measurements: the supplement of paper PMC3334620
Whole data set: some 33,000 sequences, median “E-score (-0.5 to 0.5)” near -0.012, cut for the highest 2% near 0.29. The list shows a part of the results.

Molecular target: T1, Ybr033w (UniProt P38073)
T1 sequence: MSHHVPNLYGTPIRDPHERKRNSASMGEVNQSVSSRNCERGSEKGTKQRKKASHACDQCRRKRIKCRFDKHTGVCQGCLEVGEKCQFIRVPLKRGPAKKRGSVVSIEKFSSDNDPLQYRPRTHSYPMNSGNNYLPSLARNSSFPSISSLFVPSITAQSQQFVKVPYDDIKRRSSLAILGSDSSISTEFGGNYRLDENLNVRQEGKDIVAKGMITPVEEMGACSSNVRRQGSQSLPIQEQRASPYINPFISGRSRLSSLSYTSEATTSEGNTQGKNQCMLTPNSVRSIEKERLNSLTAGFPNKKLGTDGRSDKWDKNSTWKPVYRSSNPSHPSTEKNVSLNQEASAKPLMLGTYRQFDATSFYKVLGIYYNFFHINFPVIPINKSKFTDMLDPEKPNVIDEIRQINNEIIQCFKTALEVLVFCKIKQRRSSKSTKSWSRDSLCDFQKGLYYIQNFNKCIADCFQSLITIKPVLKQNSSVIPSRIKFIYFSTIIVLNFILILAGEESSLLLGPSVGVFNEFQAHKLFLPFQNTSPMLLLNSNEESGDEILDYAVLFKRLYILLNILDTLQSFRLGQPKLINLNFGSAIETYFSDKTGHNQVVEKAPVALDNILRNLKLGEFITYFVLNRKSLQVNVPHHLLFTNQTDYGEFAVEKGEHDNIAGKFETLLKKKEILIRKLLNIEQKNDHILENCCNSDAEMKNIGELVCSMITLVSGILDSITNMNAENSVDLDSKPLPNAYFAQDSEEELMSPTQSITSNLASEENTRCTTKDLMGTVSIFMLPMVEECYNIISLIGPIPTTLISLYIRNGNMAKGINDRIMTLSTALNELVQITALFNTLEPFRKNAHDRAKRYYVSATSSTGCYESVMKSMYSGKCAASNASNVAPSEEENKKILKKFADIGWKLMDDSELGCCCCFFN
Assay: PBM E-score (8-mer binding enrichment) (E-score (-0.5 to 0.5)); higher = stronger / more preferred TF binding; most listed sequences are background and not binding sites
Settings: protein concentration: 200 nM; construct: GST-full length
Summary of the method: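 Detection of bound protein used fluorescent anti-GST, with scans normalised by masliner. The proteins were GST-tagged yeast transcription factors applied at about 100-200 nM to universal all-10-mer Agilent arrays made double-stranded by primer extension. Each ungapped eight-base word, pooled with its reverse complement, was scored with an E-score from the Universal PBM Analysis Suite.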

| Sequence | PBM E-score |
| --- | --- |
| CATATGAG | -0.00619 |
| AGTGGTCG | -0.159 |
| TAGTTCAA | 0.105 |
| CCTATACG | -0.0637 |
| GGAGTCCC | -0.366 |
| AACTCACG | -0.0165 |
| TAGTGAGA | 0.0389 |
| AAAAAATG | 0.248 |
| GTTATAGA | 0.13 |
| GGGAAGGA | -0.173 |
| CGGCGGTA | 0.0302 |
| CCAACGGC | -0.196 |
| ATCTAACA | 0.18 |
| ATGGAGCG | 0.0157 |
| CCCTATAC | -0.128 |
| CCCGGTGC | -0.314 |
| CGGAAGCA | 0.173 |
| ATCGGACA | -0.0956 |
| ACCCCAAG | -0.132 |
| ATTGGCGG | -0.113 |
| GCGGCTGA | -0.265 |
| TCCGCAAA | 0.132 |
| CGGATTAG | -0.0597 |
| AAGATCTA | -0.0135 |
| AACGTCCA | 0.0814 |

| Sequence | PBM E-score |
| --- | --- |
| GACCTTAC | -0.0749 |
| CGTGAATA | 0.0271 |
| CCTGTTAG | 0.0468 |
| ACTCGTAA | 0.212 |
| ATCTGGCG | 0.0347 |
| CCAACAGC | -0.0246 |
| GAGGCGGA | -0.102 |
| AAGTACCC | -0.101 |
| CATATATC | 0.117 |
| AGGTGTAA | 0.186 |
| CGCTGGTC | -0.314 |
| ATCTCTGG | -0.0166 |
| CCAGACAG | -0.0789 |
| TGGTGACA | 0.106 |
| ATCGCGAT | 0.0181 |
| ACTCCCCT | -0.002 |
| CGCCACAA | 0.0276 |
| GATCCTAC | 0.0816 |
| CAAAGTGC | -0.0492 |
| CTGTGGCA | -0.0619 |
| TAGATCCA | 0.128 |
| GGGGCCGA | -0.354 |
| ACTATCAC | 0.0981 |
| AAGGTACT | 0.129 |
| TCGCCACA | -0.0342 |

| Sequence | PBM E-score |
| --- | --- |
| CGTGATTC | -0.164 |
| ACGGGGGC | -0.406 |
| CCTTTGAA | -0.0418 |
| CATAGTAA | 0.257 |
| ATCCAACG | -0.0473 |
| AATGCATT | 0.31 |
| ACCCAGTG | -0.27 |
| AAGGAAAC | 0.0412 |
| GAATCCAA | 0.156 |
| GACGGGAC | -0.287 |
| ACACACTA | 0.156 |
| CGGAGAGA | 0.0441 |
| AGGCGAAA | -0.0543 |
| TAGCGATA | 0.049 |
| CAGGATGG | 0.0328 |
| CAGGTTAC | -0.143 |
| AACCATGA | 0.234 |
| ACATTGGC | -0.0146 |
| CATCTTCC | 0.0897 |
| ACCGTCGT | 0.0541 |
| CACCGGAC | -0.115 |
| GGGCGAAC | 0.0259 |
| CGGGCGAA | -0.0653 |
| GTCGGTTA | 0.0246 |
| AAGCGAAC | -0.0444 |

| Sequence | PBM E-score |
| --- | --- |
| ATACGACC | -0.111 |
| CGCGCTCA | -0.0589 |
| CTATTTCA | 0.15 |
| CTGGGCTA | -0.212 |
| AAATCATA | 0.254 |
| AGCGACGG | -0.117 |
| ACGAGCAG | -0.0359 |
| CGCCAGGA | -0.00607 |
| CGCCAGCG | -0.122 |
| AAGGTTTA | 0.0965 |
| ACATGATC | 0.122 |
| TTGTGAAA | 0.097 |
| GAATTGCC | -0.0185 |
| ATATTCCC | 0.329 |
| ATCAACTA | 0.25 |
| GCAAAGGA | 0.118 |
| ACATACCC | 0.107 |
| CAAGAGGA | 0.0563 |
| GACCAACC | -0.227 |
| AAAGCAGA | 0.131 |
| ATCTTCTA | 0.142 |
| AAGGGTCA | -0.229 |
| CACCCTGC | -0.128 |
| ACGGAAGC | -0.187 |
| TACCTCAA | 0.0553 |

| Sequence | PBM E-score |
| --- | --- |
| GCATTCCC | -0.0728 |
| CCGGGAAA | 0.0693 |
| AAAGCATG | -0.0195 |
| ATTATGCA | 0.084 |
| GGGAGGGA | -0.0948 |
| GATTTGGA | 0.0122 |
| CATAAATC | 0.146 |
| GAGTAACA | 0.162 |
| ATGTCCGA | -0.124 |
| AATGGGGC | -0.212 |
| AGTGGACC | -0.195 |
| CAGGGATG | -0.053 |
| CTGTAACC | 0.104 |
| CATTAAAC | 0.13 |
| CGATTTAA | 0.185 |
| GCTCTCCC | -0.357 |
| AAAATATT | 0.364 |
| ACTAGGCG | 0.181 |
| CGAATCGA | 0.174 |
| TGCAAACA | -0.0192 |
| ATCCCGCG | 0.122 |
| CGTTGCTC | -0.229 |
| GTTGTAGA | 0.00414 |
| AAGCAGAT | 0.0856 |
| CGTGTCTC | -0.11 |

| Sequence | PBM E-score |
| --- | --- |
| ACGATACC | 0.076 |
| ATGTCACC | 0.0486 |
| TGCGATAA | 0.255 |
| CGTACACA | 0.11 |
| ATGTAGAA | 0.104 |
| CACAGTTA | 0.142 |
| CAATCAAG | -0.0201 |
| AAATCGCC | -0.0689 |
| CGAAAAGA | 0.258 |
| CTCGTGGA | -0.00292 |
| GAGCGTGA | -0.279 |
| ATAAGGCA | 0.0348 |
| CGTACGCC | -0.159 |
| GGGAGCTA | -0.29 |
| ATGAGTTG | 0.0869 |
| AAAAATTA | 0.302 |
| CTGTCACA | -0.202 |
| GAAAGCCA | -0.136 |
| ATGCGTGC | 0.0457 |
| GAATGTCC | 0.0427 |
| TAGCTGGA | -0.149 |
| AACTTTAA | 0.183 |
| ATGAAGAC | 0.00879 |
| AAGGATCA | 0.207 |
| TGAGCTCA | 0.0873 |

| Sequence | PBM E-score |
| --- | --- |
| AATGTCCG | -0.0271 |
| AGACTGGA | 0.0391 |
| CACATGTG | -0.0982 |
| CATCAACA | 0.115 |
| AGTTACTG | 0.0336 |
| CCCTCAGG | -0.05 |
| ACTGAAAT | 0.0947 |
| ATGATGTC | 0.112 |
| AGAAATGG | -0.0479 |
| CCTGGCTA | -0.152 |
| CAGGAGTC | -0.099 |
| CACAAGGC | -0.158 |
| AACGTGGC | -0.0586 |
| CGATCCGC | -0.0786 |
| ACTCGGGA | 0.102 |
| AGTATTAC | 0.283 |
| CCTTCCTC | -0.253 |
| CACTAACG | -0.0627 |
| CGGTAAAA | 0.244 |
| GACCTGCC | -0.255 |
| GAATATTC | 0.344 |
| GCGTGACC | -0.213 |
